This is an account of results in the BET-seq Pho4 binding data (Le et al. 2018).

The other results are listed elsewhere or left out. The energies were worked out here from pooled read counts, against the library average; single values are noisy.

In this assay the target is T1, Pho4 (S. cerevisiae) (UniProt P07270).
T1 sequence: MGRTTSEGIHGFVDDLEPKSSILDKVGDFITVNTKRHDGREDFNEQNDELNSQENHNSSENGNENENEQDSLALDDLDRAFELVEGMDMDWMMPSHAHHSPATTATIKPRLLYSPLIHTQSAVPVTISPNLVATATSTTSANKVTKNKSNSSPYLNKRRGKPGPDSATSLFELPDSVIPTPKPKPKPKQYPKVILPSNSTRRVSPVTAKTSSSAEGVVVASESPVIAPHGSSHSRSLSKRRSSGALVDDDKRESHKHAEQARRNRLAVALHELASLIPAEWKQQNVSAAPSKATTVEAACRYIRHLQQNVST
Description: relative binding free energy (BET-seq); higher = weaker binding. The settings on record: reference: library average.
Take TTGTGCACGTGCGTTG: the “relative binding free energy” value is -0.08 kcal/mol.

In the case of CGATTCACGTGGGTTA, the “relative binding free energy” value was 0.15 kcal/mol.

TGTTACACGTGATCAG: the “relative binding free energy” value worked out at 0.19 kcal/mol.

In the case of TGGATCACGTGATTGA, the “relative binding free energy” value worked out at 0.27 kcal/mol.

AATTGCACGTGTGCTG: the “relative binding free energy” value is -0.01 kcal/mol.

As for CGTTGCACGTGGTGAC, the “relative binding free energy” value was 0.02 kcal/mol.

As to GTGATCACGTGGTAAT, the “relative binding free energy” value came to 0.19 kcal/mol.

As to CGTAACACGTGGGTTT, the “relative binding free energy” value was -0.2 kcal/mol.

For the sequence GGTGGCACGTGATTAC, the “relative binding free energy” value was 0.08 kcal/mol.

As to TTTTGCACGTGTGCAA, the “relative binding free energy” value is -0.11 kcal/mol.

Take GAGGGCACGTGCTGGT: the “relative binding free energy” value was -0.12 kcal/mol.

Consider GTAATCACGTGGGGTA, for which the “relative binding free energy” value came out at 0.06 kcal/mol.

CCGGGCACGTGAGGAT: the “relative binding free energy” value was 0.2 kcal/mol.

Regarding TTGAGCACGTGAAGTT, the “relative binding free energy” value is 0.3 kcal/mol.

As to TTTTACACGTGGCTTC, the “relative binding free energy” value came to 0.09 kcal/mol.

In the case of ATGAGCACGTGCGGGG, the “relative binding free energy” value is -0.11 kcal/mol.

On to TATGTCACGTGCGTGG, for which the “relative binding free energy” value is -0.02 kcal/mol.

For GGTAACACGTGGGGCT, the “relative binding free energy” value is -0.22 kcal/mol.

In the case of GACTGCACGTGTGGCG, the “relative binding free energy” value turned out to be 0.16 kcal/mol.

For GTTATCACGTGTGGCT, the “relative binding free energy” value amounted to 0.27 kcal/mol.

Take TATAGCACGTGAATAT: the “relative binding free energy” value turned out to be 0.24 kcal/mol.

As to CGTGTCACGTGATGGA, the “relative binding free energy” value amounted to 0.17 kcal/mol.

With TACTTCACGTGGTAAG, the “relative binding free energy” value turned out to be 0.28 kcal/mol.

In the case of TACCTCACGTGTAGGT, the “relative binding free energy” value is 0.3 kcal/mol.

On to TGTAACACGTGTGAGT, for which the “relative binding free energy” value came to 0.03 kcal/mol.

Take TGTAACACGTGTGCTG: the “relative binding free energy” value is -0.05 kcal/mol.

Consider GGGGTCACGTGGATAA, for which the “relative binding free energy” value stood at 0.17 kcal/mol.

As for CTGTTCACGTGTTGAG, the “relative binding free energy” value amounted to 0.34 kcal/mol.

On to TGTGTCACGTGTGCGG, for which the “relative binding free energy” value is 0.14 kcal/mol.

On to TTGGTCACGTGTACCA, for which the “relative binding free energy” value came out at 0.18 kcal/mol.

Regarding AAAGTCACGTGTGGCT, the “relative binding free energy” value amounted to 0.09 kcal/mol.

Consider GTGAGCACGTGGGGCA, for which the “relative binding free energy” value was -0.18 kcal/mol.

In the case of GGCGGCACGTGGTTTA, the “relative binding free energy” value is -0.1 kcal/mol.

Take CGGGGCACGTGGTGTG: the “relative binding free energy” value was -0.13 kcal/mol.

Take TTTAGCACGTGCTTTA: the “relative binding free energy” value is -0.26 kcal/mol.

Consider GCATTCACGTGGCTTT, for which the “relative binding free energy” value amounted to 0.26 kcal/mol.

As for GAGTTCACGTGAAATG, the “relative binding free energy” value was 0.32 kcal/mol.

Consider TGGGGCACGTGGGTGG, for which the “relative binding free energy” value was -0.16 kcal/mol.

For CTAGGCACGTGGATGA, the “relative binding free energy” value was -0.05 kcal/mol.

Turning to GTTGTCACGTGATGTA, the “relative binding free energy” value was determined as 0.2 kcal/mol.

As to TTCTTCACGTGTATTT, the “relative binding free energy” value turned out to be 0.34 kcal/mol.

For TGGTACACGTGAGATA, the “relative binding free energy” value is 0.3 kcal/mol.

Turning to ATTCGCACGTGGGCGG, the “relative binding free energy” value is -0.21 kcal/mol.

On to AAAATCACGTGAGGTT, for which the “relative binding free energy” value is 0.38 kcal/mol.

For the sequence ACGTGCACGTGCAGGG, the “relative binding free energy” value is -0.05 kcal/mol.

For the sequence GTCTTCACGTGCTGGT, the “relative binding free energy” value stood at 0.38 kcal/mol.

As for ACTTGCACGTGGCTGT, the “relative binding free energy” value is -0.03 kcal/mol.

Turning to GTGAGCACGTGGATGC, the “relative binding free energy” value amounted to 0.04 kcal/mol.

In the case of GGGTCCACGTGTGTCT, the “relative binding free energy” value is 0.15 kcal/mol.

Regarding GTCTACACGTGATGGG, the “relative binding free energy” value amounted to 0.35 kcal/mol.

Regarding ATTAACACGTGTCGTA, the “relative binding free energy” value was determined as 0 kcal/mol.

For GCTATCACGTGGGGGG, the “relative binding free energy” value is -0.03 kcal/mol.

In the case of TCTTCCACGTGTTGTG, the “relative binding free energy” value turned out to be 0.06 kcal/mol.

Turning to GTCTGCACGTGGAGGG, the “relative binding free energy” value was -0.05 kcal/mol.

As to ACTTACACGTGTTGTA, the “relative binding free energy” value was found to be 0.06 kcal/mol.

For GCTGGCACGTGTAGAT, the “relative binding free energy” value was 0.3 kcal/mol.

For ATTGACACGTGGTGAT, the “relative binding free energy” value is -0.21 kcal/mol.

ATAGGCACGTGATTAG: the “relative binding free energy” value is 0 kcal/mol.

As to TTTTGCACGTGGGTTT, the “relative binding free energy” value was 0.01 kcal/mol.

TTAGTCACGTGGATGT: the “relative binding free energy” value turned out to be 0.12 kcal/mol.

On to GTACACACGTGTAGGT, for which the “relative binding free energy” value is 0.01 kcal/mol.

For TTTTGCACGTGCAGCG, the “relative binding free energy” value came out at 0.01 kcal/mol.

On to CTGTTCACGTGGTCTG, for which the “relative binding free energy” value is 0.15 kcal/mol.

TGGGCCACGTGTGAAT: the “relative binding free energy” value was determined as 0 kcal/mol.

Consider TCGGGCACGTGGTATG, for which the “relative binding free energy” value is -0.17 kcal/mol.

Take GTGCGCACGTGATTAG: the “relative binding free energy” value came to 0.15 kcal/mol.

Turning to GTTTGCACGTGGGGAT, the “relative binding free energy” value worked out at 0.03 kcal/mol.

Take ATATCCACGTGGTTTT: the “relative binding free energy” value was 0.09 kcal/mol.

Turning to TAATTCACGTGGCCGT, the “relative binding free energy” value worked out at 0.29 kcal/mol.

For the sequence GACGTCACGTGGTGGG, the “relative binding free energy” value amounted to 0.09 kcal/mol.

As to CGGGACACGTGAGCGG, the “relative binding free energy” value came to 0.35 kcal/mol.

Regarding AGTCGCACGTGCGGGA, the “relative binding free energy” value was -0.17 kcal/mol.

In the case of GACAACACGTGGGGTT, the “relative binding free energy” value is -0.07 kcal/mol.

On to GGCTGCACGTGGTTTC, for which the “relative binding free energy” value turned out to be 0.14 kcal/mol.

For the sequence TGCGTCACGTGATGGG, the “relative binding free energy” value turned out to be 0.21 kcal/mol.

In the case of GTTACCACGTGTGGTT, the “relative binding free energy” value is 0.06 kcal/mol.

As to TGGTTCACGTGCTTCG, the “relative binding free energy” value came to 0.26 kcal/mol.

On to GTGAGCACGTGGGAAT, for which the “relative binding free energy” value is -0.08 kcal/mol.

On to GTCTGCACGTGAGATG, for which the “relative binding free energy” value was determined as 0.33 kcal/mol.

As for TGCTTCACGTGTTGGA, the “relative binding free energy” value turned out to be 0.21 kcal/mol.

In the case of CTATTCACGTGGTTTT, the “relative binding free energy” value stood at 0.16 kcal/mol.

With GAGGGCACGTGCGATT, the “relative binding free energy” value was -0.08 kcal/mol.

Regarding GTGGACACGTGGAGGA, the “relative binding free energy” value was 0.02 kcal/mol.

As for TGGATCACGTGTTTGC, the “relative binding free energy” value stood at 0.01 kcal/mol.

With AGTTGCACGTGGTGGT, the “relative binding free energy” value is -0.05 kcal/mol.

Take CGTAGCACGTGGTTTG: the “relative binding free energy” value is -0.26 kcal/mol.

With TAGGCCACGTGGTGCG, the “relative binding free energy” value was -0.27 kcal/mol.

In the case of GTTTTCACGTGGCCGG, the “relative binding free energy” value came out at 0.29 kcal/mol.

Take GGATTCACGTGCGAGT: the “relative binding free energy” value amounted to 0.3 kcal/mol.

As for TAGTACACGTGATAGG, the “relative binding free energy” value came to 0.31 kcal/mol.

Take GTGCTCACGTGGTGCG: the “relative binding free energy” value worked out at 0.09 kcal/mol.

Consider GGATGCACGTGTAAAT, for which the “relative binding free energy” value is 0.14 kcal/mol.

CTGTACACGTGGTTGG: the “relative binding free energy” value is 0 kcal/mol.

As for TTTCTCACGTGGGTCA, the “relative binding free energy” value turned out to be 0.05 kcal/mol.

On to TACGGCACGTGGTGAA, for which the “relative binding free energy” value is -0.04 kcal/mol.

For the sequence ATTAACACGTGCGGGA, the “relative binding free energy” value amounted to 0 kcal/mol.

As to TCTTGCACGTGATGGC, the “relative binding free energy” value turned out to be 0.24 kcal/mol.

Regarding CGTTACACGTGGATGT, the “relative binding free energy” value amounted to 0.05 kcal/mol.

Turning to TTTTCCACGTGTCGTT, the “relative binding free energy” value was determined as 0.01 kcal/mol.

For the sequence TTTAGCACGTGGGTGA, the “relative binding free energy” value was -0.13 kcal/mol.

AAGAGCACGTGTGTAG: the “relative binding free energy” value was 0.01 kcal/mol.

In the case of TTCATCACGTGAGAGG, the “relative binding free energy” value stood at 0.42 kcal/mol.

Take AGGGGCACGTGGAATG: the “relative binding free energy” value is -0.05 kcal/mol.

For the sequence ATTGGCACGTGGAATG, the “relative binding free energy” value is -0.01 kcal/mol.

TTTAGCACGTGACGGA: the “relative binding free energy” value was 0.1 kcal/mol.

In the case of TTTAACACGTGTGTCA, the “relative binding free energy” value was determined as 0.03 kcal/mol.

Consider AATCTCACGTGTTTAG, for which the “relative binding free energy” value is 0.35 kcal/mol.

On to TGGGGCACGTGCTATT, for which the “relative binding free energy” value is -0.19 kcal/mol.

With ATTATCACGTGAAGTG, the “relative binding free energy” value amounted to 0.37 kcal/mol.

As for GTTGTCACGTGGCTCT, the “relative binding free energy” value is 0.09 kcal/mol.

As for AGGGTCACGTGGCGTG, the “relative binding free energy” value was -0.05 kcal/mol.

Take TGTAGCACGTGTGTAT: the “relative binding free energy” value was -0.07 kcal/mol.

For the sequence AATTGCACGTGTTTGC, the “relative binding free energy” value was found to be 0.11 kcal/mol.

Regarding GGGTGCACGTGGTGGA, the “relative binding free energy” value was 0.09 kcal/mol.

For the sequence TAGTTCACGTGGAGAG, the “relative binding free energy” value is 0.32 kcal/mol.
